Data taken from the supplement of paper PMC8728848.
This is one part of the list.

Tests used:
Test in all cases: glycan array binding signal (z-score within array); higher = stronger binding
Conditions in all cases: glycan notation: IUPAC condensed, linker removed
[1] = biological target: Gal(b1-4)GlcNAc(b1-2)Man(a1-6)[GlcNAc(b1-2)Man(a1-3)]Man(b1-4)GlcNAc(b1-4)GlcNAc
Procedure, shortened: (§1)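 Columns mapping to the same glycan were averaged after glycan names were converted to IUPAC-condensed notation. The data come from 3228 arrays in the Consortium for Functional Glycomics database, limited to those with an available protein sequence. Binding is reported as a within-array Z-score averaged across arrays of one protein sequence and across linkers.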

[2] = biological target: Gal(b1-4)GlcNAc(b1-2)Man(a1-6)[Man(a1-3)]Man(b1-4)GlcNAc(b1-4)GlcNAc
Procedure, shortened: as §1

[3] = biological target: Gal(b1-4)GlcNAc(b1-2)[Gal(b1-4)GlcNAc(b1-4)]Man(a1-3)[Gal(b1-4)GlcNAc(b1-2)Man(a1-6)]Man(b1-4)GlcNAc(b1-4)GlcNAc
Procedure, shortened: as §1

[4] = biological target: Gal(b1-4)GlcNAc(b1-2)[Gal(b1-4)GlcNAc(b1-4)]Man(a1-3)[Gal(b1-4)GlcNAc(b1-2)[Gal(b1-4)GlcNAc(b1-6)]Man(a1-6)]Man(b1-4)GlcNAc(b1-4)GlcNAc
Procedure, shortened: as §1

[5] = biological target: Gal(b1-4)GlcNAc(b1-2)[Gal(b1-4)GlcNAc(b1-4)]Man(a1-3)[GlcNAc(b1-4)][Gal(b1-4)GlcNAc(b1-2)Man(a1-6)]Man(b1-4)GlcNAc(b1-4)GlcNAc
Procedure, shortened: as §1

[6] = biological target: Gal(b1-4)GlcNAc(b1-2)[Gal(b1-4)GlcNAc(b1-4)]Man(a1-3)[GlcNAc(b1-4)][Gal(b1-4)GlcNAc(b1-2)[Gal(b1-4)GlcNAc(b1-6)]Man(a1-6)]Man(b1-4)GlcNAc(b1-4)GlcNAc
Procedure, shortened: as §1

[7] = biological target: Gal(b1-4)GlcNAc(b1-2)[Gal(b1-4)GlcNAc(b1-6)]Man(a1-6)[Gal(b1-4)GlcNAc(b1-2)Man(a1-3)]Man(b1-4)GlcNAc(b1-4)GlcNAc
Procedure, shortened: as §1

[8] = biological target: Gal(b1-4)GlcNAc(b1-2)[Gal(b1-4)GlcNAc(b1-6)]Man(a1-6)[Gal(b1-4)GlcNAc(b1-2)Man(a1-3)]Man(b1-4)GlcNAc(b1-4)[Fuc(a1-6)]GlcNAc
Procedure, shortened: as §1

[9] = biological target: Gal(b1-4)GlcNAc(b1-2)[Gal(b1-4)GlcNAc(b1-6)]Man(a1-6)[GlcNAc(b1-4)][Gal(b1-4)GlcNAc(b1-2)Man(a1-3)]Man(b1-4)GlcNAc(b1-4)GlcNAc
Procedure, shortened: as §1

[10] = biological target: Gal(b1-4)GlcNAc(b1-2)[Gal(b1-4)GlcNAc(b1-6)]Man(a1-6)[GlcNAc(b1-4)][Gal(b1-4)GlcNAc(b1-2)[Gal(b1-4)GlcNAc(b1-4)]Man(a1-3)]Man(b1-4)GlcNAc(b1-4)[Fuc(a1-6)]GlcNAc
Procedure, shortened: as §1

[11] = biological target: Gal(b1-4)GlcNAc(b1-3)Gal(b1-3)GalNAc
Procedure, shortened: as §1

[12] = biological target: Gal(b1-4)GlcNAc(b1-3)Gal(b1-3)GlcNAc
Procedure, shortened: as §1

[13] = biological target: Gal(b1-4)GlcNAc(b1-3)Gal(b1-4)Glc
Procedure, shortened: as §1

[14] = biological target: Gal(b1-4)GlcNAc(b1-3)Gal(b1-4)GlcNAc
Procedure, shortened: as §1

[15] = biological target: Gal(b1-4)GlcNAc(b1-3)Gal(b1-4)GlcNAc(b1-2)Man(a1-3)[Gal(b1-4)GlcNAc(b1-3)Gal(b1-4)GlcNAc(b1-2)Man(a1-6)]Man(b1-4)GlcNAc(b1-4)GlcNAc
Procedure, shortened: as §1

[16] = biological target: Gal(b1-4)GlcNAc(b1-3)Gal(b1-4)GlcNAc(b1-2)Man(a1-3)[Gal(b1-4)GlcNAc(b1-3)Gal(b1-4)GlcNAc(b1-2)Man(a1-6)]Man(b1-4)GlcNAc(b1-4)[Fuc(a1-6)]GlcNAc
Procedure, shortened: as §1

[17] = biological target: Gal(b1-4)GlcNAc(b1-3)Gal(b1-4)GlcNAc(b1-2)[Gal(b1-4)GlcNAc(b1-3)Gal(b1-4)GlcNAc(b1-6)]Man(a1-6)[Gal(b1-4)GlcNAc(b1-3)Gal(b1-4)GlcNAc(b1-2)Man(a1-3)]Man(b1-4)GlcNAc(b1-4)GlcNAc
Procedure, shortened: as §1

[18] = biological target: Gal(b1-4)GlcNAc(b1-3)Gal(b1-4)GlcNAc(b1-2)[Gal(b1-4)GlcNAc(b1-3)Gal(b1-4)GlcNAc(b1-6)]Man(a1-6)[Gal(b1-4)GlcNAc(b1-3)Gal(b1-4)GlcNAc(b1-2)Man(a1-3)]Man(b1-4)GlcNAc(b1-4)[Fuc(a1-6)]GlcNAc
Procedure, shortened: as §1

[19] = biological target: Gal(b1-4)GlcNAc(b1-3)Gal(b1-4)GlcNAc(b1-3)Gal(b1-4)GlcNAc
Procedure, shortened: as §1

B1: XL-35 (Xenopus laevis) (protein)
chain: MLVHILLLLVTGGLSQSCDPVVIVASKNMVKQLDCDKFRNCKEIKDSNEEAQDGIYTLTSPDGISYQTFCDMTTNGGGWTLVASVHENNMAGKCTIGDRWSSQQGNRADYPEGDGNWANYNTFGSAGGATSDDYKNPGYYDIEAYNLGVWHVPNKTPLSVWRNSSLQRYRTTDGILFKHGGNLFSLYRIYPVKYGIGSCSKDSGPTVPVVYDLGSANLTASFYSPGFRSQFTPGYIQFRPINTEKAALALCPGMKMESCNVEHVCIGGGGYFPEADPRQCGDFAAYDFNGYGTKKFNSAGIEITEAAVLLFYL
- glycan array binding signal (z-score) [1]: -0.06
- glycan array binding signal (z-score) [2]: 0.013
- glycan array binding signal (z-score) [3]: -0.488
- glycan array binding signal (z-score) [4]: 0.777
- glycan array binding signal (z-score) [5]: -0.284
- glycan array binding signal (z-score) [6]: -0.264
- glycan array binding signal (z-score) [7]: 0.116
- glycan array binding signal (z-score) [8]: 0.078
- glycan array binding signal (z-score) [9]: -0.452
- glycan array binding signal (z-score) [10]: -0.335
- glycan array binding signal (z-score) [11]: -0.332
- glycan array binding signal (z-score) [12]: -0.158
- glycan array binding signal (z-score) [13]: 0.126
- glycan array binding signal (z-score) [14]: 0.116
- glycan array binding signal (z-score) [15]: 0.242
- glycan array binding signal (z-score) [16]: 0.239
- glycan array binding signal (z-score) [17]: 0.164
- glycan array binding signal (z-score) [18]: 0.295
- glycan array binding signal (z-score) [19]: -0.269
